# Screen size: about 310,000 compounds; about 2,200 (0.71%) showed an effect of 50% or more. Effects have a minus sign here. The list shows a part of the results. Where a SMILES comes first, the peptide text is derived from it. [ ]: non-standard residue; d: D form. The star is where a group is joined. ξ: configuration not given here. ξF = NC(Cc1ccccc1)C(=O)O; Cbz = O=C(OCc1ccccc1)*
# Target: human ether-à-go-go-related gene (hERG) potassium channel (human, UniProt Q12809)
# Test: primary screen, population patch clamp on CHO cells stably expressing hERG
# Sequence of human ether-à-go-go-related gene (hERG) potassium channel (Q12809 whole entry, looked up): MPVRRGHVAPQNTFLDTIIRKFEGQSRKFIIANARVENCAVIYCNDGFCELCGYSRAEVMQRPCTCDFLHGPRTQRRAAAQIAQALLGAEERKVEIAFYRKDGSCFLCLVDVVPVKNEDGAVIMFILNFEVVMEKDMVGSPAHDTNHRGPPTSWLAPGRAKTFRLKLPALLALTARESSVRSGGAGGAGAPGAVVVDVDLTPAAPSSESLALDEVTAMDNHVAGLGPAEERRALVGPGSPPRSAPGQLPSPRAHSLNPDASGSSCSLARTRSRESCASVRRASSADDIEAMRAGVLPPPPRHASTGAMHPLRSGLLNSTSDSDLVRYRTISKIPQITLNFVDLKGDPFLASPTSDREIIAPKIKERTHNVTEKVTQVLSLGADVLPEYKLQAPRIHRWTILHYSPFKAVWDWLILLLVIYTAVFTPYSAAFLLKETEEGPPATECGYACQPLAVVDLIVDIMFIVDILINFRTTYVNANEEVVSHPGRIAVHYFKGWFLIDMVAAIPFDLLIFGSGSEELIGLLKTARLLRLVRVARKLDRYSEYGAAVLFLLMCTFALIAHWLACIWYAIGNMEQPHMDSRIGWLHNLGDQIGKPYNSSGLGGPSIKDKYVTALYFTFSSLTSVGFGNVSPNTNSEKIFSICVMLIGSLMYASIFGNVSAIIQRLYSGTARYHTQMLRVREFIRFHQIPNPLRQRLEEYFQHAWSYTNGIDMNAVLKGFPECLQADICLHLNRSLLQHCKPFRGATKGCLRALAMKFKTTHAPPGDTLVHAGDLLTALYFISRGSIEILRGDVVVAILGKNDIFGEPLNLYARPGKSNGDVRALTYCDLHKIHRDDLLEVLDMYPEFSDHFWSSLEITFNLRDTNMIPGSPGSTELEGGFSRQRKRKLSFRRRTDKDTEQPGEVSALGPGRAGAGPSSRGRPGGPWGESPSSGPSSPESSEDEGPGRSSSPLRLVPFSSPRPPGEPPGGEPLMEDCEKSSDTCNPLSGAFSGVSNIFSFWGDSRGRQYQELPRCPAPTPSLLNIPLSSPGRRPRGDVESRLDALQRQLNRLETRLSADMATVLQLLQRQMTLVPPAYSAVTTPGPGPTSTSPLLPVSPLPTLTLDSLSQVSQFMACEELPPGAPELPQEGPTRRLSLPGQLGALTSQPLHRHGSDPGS
row,SMILES,"hERG current change (%, negative = inhibition) at 1uM"
1,O=C(CCc1ccccc1)NCCCN1CCOCC1,11%
2,O=C(c1cc(C(=O)NCc2ccccc2)c(=O)n(Cc2ccccc2)c1)c1cc(Br)ccc1O,-4.05%
3,COc1ccc(CN2C(=O)[C@@H]3Cc4c([nH]c5ccccc45)C(C)(C)N3C2=O)cc1,9.64%
4,COCCNC(=O)C(=O)Nc1ccc(Br)cc1,10.9%
5,COc1cccc(C2=CC(c3cccs3)n3nnnc3N2)c1 (centres unmarked),11.6%
6,O=C(CN1CCC(C(=O)c2ccc(F)cc2)CC1)NCc1ccccc1F,2.84%
7,COc1ccc(C(=O)NCc2ccc(C)cc2)cc1S(=O)(=O)N1CCCc2ccccc21,-4.48%
8,COc1ccc(OC)c(NC(=O)c2cccc(C)c2[N+](=O)[O-])c1,12%
9,COc1ccc(/C=C(/NC(=O)c2ccccc2)c2nc3ccc(Cl)cc3[nH]2)cc1OC,-0.141%
10,COc1ccccc1-c1nnc(NC(=O)CSc2nncn2C)s1,-3.38%
11,COC(=O)NCc1ccc(CNC(=O)OC)cc1,4.93%
12,CCCn1c(-c2cccc([N+](=O)[O-])c2)nc2c1c(=O)[nH]c(=O)n2Cc1ccccc1,-15.7%
13,CCOc1ccc(-c2cc(CCCC(=O)NCc3ccco3)no2)cc1,1.43%
14,O=C(Nc1cc([N+](=O)[O-])ccc1N1CCCC1)c1cccs1,-11%
15,CN(C(=O)COC(=O)c1ccc(Cl)nc1)c1c(N)n(Cc2ccccc2)c(=O)[nH]c1=O,7.48%
16,O=C(CSc1n[nH]c(-c2cccnc2)n1)Nc1ccc([N+](=O)[O-])cc1Br,2.55%
17,Cc1ccc(S(=O)(=O)NC(=O)c2cccc(Br)c2)cc1,7.59%
18,Cn1c(SCC(=O)Nc2ccc3c(c2)OCCO3)nnc1-c1ccccn1,6.5%
19,CCOC(=O)C(Cc1ccccc1)NC(=O)CNC(=O)CNC(=O)OCc1ccccc1 (stereo not drawn) (Cbz-Gly-Gly-[ξF]-OEt),29.5%

row,SMILES,"hERG current change (%, negative = inhibition) at 1uM"
1,CSc1ccccc1-n1nnnc1SCC(=O)NCc1cccs1,2.6%
2,COc1ccccc1CNC(=O)N/C=C/c1ccc(Cl)cc1,8.8%
3,CCC(Sc1nc2n[nH]c(C)c2c(=N)n1-c1cccc(Cl)c1C)C(=O)N(CC)CC (centres unmarked),-6.09%
4,Cn1ncc(Cl)c(Oc2ccccc2)c1=O,12.8%
5,Cc1ccc2c(c1)COc1c3ccc(C(=O)O)cc3nn1-2,2.82%
6,COc1ccccc1OCCn1c(=O)sc2ccccc21,18.2%
7,C/C(=N\NC(=O)COc1ccccc1)c1cccs1,12.2%
8,CN1C(=O)C(CC(=O)Nc2ccc(F)cc2)N(CCCc2ccccc2)C1=S (centres unmarked),3.93%
9,O=C(NC(=S)NCCN1CCOCC1)c1cccc(Cl)c1,5.65%
10,CCn1c(-c2nonc2NC(=O)c2ccccc2)nc2ccccc21,-1.97%
11,Cc1nnc2c(NCC(C)c3ccccc3)nc3ccccc3n12 (centres unmarked),8.09%
12,COc1ccc(-c2csc(N3CCN(c4cc5c(cc4Cl)nc(-c4ccncc4)n5CCOCCO)CC3)n2)cc1,12.9%
13,Cc1ccc(C(=O)N2CCC3(CC2)Oc2ccc(Cl)cc2C(=O)C32CC(c3ccccc3)=NO2)s1 (centres unmarked),11.5%
14,O=C(CN1CCN(CC(=O)Nc2ccccc2F)CC1)Nc1ccc2c(c1)OCCO2,-21.4%
15,COc1ccc2oc(C(=O)OCc3nnc(-c4ccccc4)o3)c(C)c2c1,20.2%
16,Cc1ccc(C)c(S(=O)(=O)N2CCN(C(C(=O)Nc3ccc(F)cc3)c3ccccc3)CC2)c1 (centres unmarked),11%
17,COc1ccc(C(=O)Nc2ccc(N3CCN(c4ccc(OC)cc4)CC3)c(C#N)c2)cc1,16.1%
18,CCOC(=O)CN(C(=O)CSc1nnc2c(n1)[nH]c1ccc(F)cc12)c1ccccc1,-7.59%
19,CCOC(=O)NNC1CC(=O)N(c2ccccc2)C1=O (centres unmarked),9.15%

row,SMILES,"hERG current change (%, negative = inhibition) at 1uM"
1,Fc1ccc(NC(=S)NC23CN4CN(CN(C4)C2)C3)cc1,12.2%
2,CCNC(=S)N/N=C/c1ccc(OCCOc2ccccc2C)cc1,8%
3,O=C(O)c1ccc(N/N=C/c2c(F)cccc2Cl)cc1,15.1%
4,CN(CC(=O)Nc1ccc(Cl)c(C(F)(F)F)c1)C(=O)CCN1C(=O)C2CC=CCC2C1=O (centres unmarked),-6.3%
5,COc1ccc(OCC(=O)Nn2c(-c3cccc(OC)c3)nc3ccccc3c2=O)cc1,3.51%
6,Cc1cc(C)cc(NC(=O)NCc2ccccn2)c1,5.86%
7,Cc1ccc2c(c1)C(O)(CC(=O)c1cccnc1)C(=O)N2 (centres unmarked),-1.21%
8,O=C(NCC1CCOCC1)c1cc(COc2cccc(C(F)(F)F)c2)on1,0.0457%
9,CN(C)C(=O)Oc1c(Cl)cc(Cl)c2ccccc12,-41.1%
10,O=C(CCS(=O)(=O)c1ccc(Br)cc1)N1CCN(Cc2ccccc2)CC1,7.56%
11,Cc1ccc(C(=O)c2sc(Nc3ccccc3)c(C#N)c2N)cc1,8.25%
12,Cc1cc(C)n(-c2ccc(C(=O)O)cc2[N+](=O)[O-])n1,7.54%
13,COc1ccc(S(=O)(=O)N2CCN(CC(=O)Nc3ccc(F)c(F)c3)CC2)cc1,-20.3%
14,COc1cc(/C=N\NC(=O)CNC(=O)C(c2ccccc2)c2ccccc2)ccc1O,12.5%
15,COc1ccc(CSC(=N)N)cc1[N+](=O)[O-].Cl,6.74%
16,O=C(COC(=O)C1c2ccccc2Oc2ccccc21)Nc1ccc2c(c1)OCO2,10.2%
17,Cc1nnc(SC(C)C)n(N)c1=O,9.8%
18,Cc1ccc(OC(C)C(=O)N2CC(=O)Nc3ccccc32)c(C)c1 (centres unmarked),10.7%

# Source: publication PMC4336329 (PLoS ONE, 2015)
